The test system of one test is HSkMC. Kind of test: cytotoxicity call (relative viability < 0.9). The settings on record: 10 µM.
The subject of a further test is S. aureus RN4220. Kind of test: growth inhibition call (relative growth <= 0.2). The settings on record: 50 µM.

Structures are written as SMILES. The list shows a part of the results.

In the case of `Cc1noc(C)c1NC(=O)Nc1ccc2c(c1)CC(=O)N([C@H](C)CO)C[C@@H](C)[C@H](CN(C)Cc1ccc(C(=O)Nc3ccccc3N)cc1)O2`, in the test with HSkMC, the cytotoxicity call was “inactive”. The growth inhibition call in the test on S. aureus RN4220 is “inactive”.

Regarding `CC(C)NC(=O)Nc1ccc2c(c1)CC(=O)N([C@@H](C)CO)C[C@@H](C)[C@H](CN(C)S(=O)(=O)c1cn(C)cn1)O2`, in the test with HSkMC, the cytotoxicity call is “inactive”. Further, the growth inhibition call in the test on S. aureus RN4220 is “inactive”.

Regarding `Cc1noc(C)c1NC(=O)Nc1ccc2c(c1)CC(=O)N([C@H](C)CO)C[C@H](C)[C@@H](CN(C)Cc1ccc(Oc3ccccc3)cc1)O2`, the cytotoxicity call with HSkMC is “inactive”. Moreover, in the test on S. aureus RN4220, the growth inhibition call is “inactive”.

For the compound `C[C@@H]1CCCCO[C@@H](CN(C)S(=O)(=O)c2cccs2)[C@@H](C)CN([C@@H](C)CO)C(=O)c2cc(NC(=O)C3CCCCC3)ccc2O1`, the cytotoxicity call in the test with HSkMC was “inactive”. Moreover, in the test with S. aureus RN4220, the growth inhibition call is “inactive”.

Turning to `O=C(C[C@@H]1C=C[C@@H](NC(=O)c2cnccn2)[C@H](CO)O1)NCc1ccccc1F`, the cytotoxicity call in the test on HSkMC was “inactive”. Moreover, the growth inhibition call in the test with S. aureus RN4220 is “inactive”.

For the compound `C[C@@H]1CN([C@H](C)CO)C(=O)Cc2cc(NC(=O)Nc3ccccc3)ccc2O[C@H]1CN(C)Cc1ccc(-c2ccccc2)cc1`, in the test with HSkMC, the cytotoxicity call is “inactive”. Also, the growth inhibition call in the test with S. aureus RN4220 is “inactive”.

For the compound `C[C@@H]1CN([C@H](C)CO)C(=O)CCCn2nncc2CO[C@@H]1CN(C)S(=O)(=O)c1ccc(Cl)cc1`, the cytotoxicity call in the test on HSkMC was “inactive”. In addition, in the test with S. aureus RN4220, the growth inhibition call was “inactive”.

As for `COc1ccc(NC(=O)N(C)C[C@H]2OCCCC[C@H](C)Oc3ccc(NC(=O)Nc4c(C)noc4C)cc3C(=O)N([C@H](C)CO)C[C@@H]2C)cc1`, the cytotoxicity call in the test on HSkMC is “inactive”. In addition, the growth inhibition call in the test with S. aureus RN4220 is “inactive”.

With `C[C@@H]1CCCCO[C@H](CN(C)Cc2ccc(C(=O)O)cc2)[C@@H](C)CN([C@@H](C)CO)C(=O)c2cc(NC(=O)Nc3cccc4ccccc34)ccc2O1`, the cytotoxicity call in the test on HSkMC was “inactive”. Besides, the growth inhibition call with S. aureus RN4220 is “inactive”.

In the case of `O=C(N[C@@H]1C=C[C@H](CC(=O)N2CCOCC2)O[C@@H]1CO)c1ccc2c(c1)OCO2`, in the test with HSkMC, the cytotoxicity call is “inactive”. Further, the growth inhibition call in the test with S. aureus RN4220 was “inactive”.

For `CN1CCN(C(=O)C[C@@H]2CC[C@@H]3[C@H](COC[C@H](O)CN3C(=O)Nc3cc(Cl)cc(Cl)c3)O2)CC1`, the cytotoxicity call with HSkMC is “inactive”. Also, the growth inhibition call with S. aureus RN4220 is “inactive”.

Regarding `C[C@@H]1CCCCO[C@@H](CN(C)C)[C@H](C)CN([C@H](C)CO)C(=O)c2cc(NC(=O)Nc3cccc4ccccc34)ccc2O1`, the cytotoxicity call in the test on HSkMC is “inactive”. In the test on S. aureus RN4220, the growth inhibition call is “inactive”.

Turning to `C[C@H](CO)N1C[C@H](C)[C@H](CN(C)C(=O)Nc2ccc3c(c2)OCO3)Oc2cc(C#Cc3cccnc3)ccc2S1(=O)=O`, the cytotoxicity call in the test with HSkMC is “inactive”. The growth inhibition call in the test on S. aureus RN4220 was “inactive”.

Regarding `C[C@H](CO)N1C[C@H](C)[C@@H](CN(C)Cc2ccccc2)Oc2ccc(NC(=O)CCCN(C)C)cc2CC1=O`, the cytotoxicity call with HSkMC is “inactive”. Further, in the test on S. aureus RN4220, the growth inhibition call was “inactive”.

In the case of `C[C@@H]1CCCCO[C@H](CN(C)S(=O)(=O)c2cn(C)cn2)[C@@H](C)CN([C@H](C)CO)C(=O)c2cc(N(C)C)ccc2O1`, the cytotoxicity call in the test on HSkMC was “inactive”. Also, the growth inhibition call with S. aureus RN4220 was “inactive”.

Turning to `C[C@H](NC(=O)N(C)C[C@@H]1OCc2ccccc2-c2ccccc2C(=O)N([C@H](C)CO)C[C@@H]1C)c1ccccc1`, in the test on HSkMC, the cytotoxicity call was “inactive”. Also, in the test on S. aureus RN4220, the growth inhibition call was “inactive”.

Consider `Cc1noc(C)c1NC(=O)Nc1ccc2c(c1)C(=O)N([C@H](C)CO)C[C@@H](C)[C@H](CN(C)S(=O)(=O)c1ccc(F)cc1)OCCCC[C@@H](C)O2`, for which, in the test on HSkMC, the cytotoxicity call was “inactive”. The growth inhibition call in the test on S. aureus RN4220 is “inactive”.

Turning to `COc1ccc(S(=O)(=O)Nc2ccc3c(c2)C(=O)N([C@@H](C)CO)C[C@@H](C)[C@H](CN(C)S(=O)(=O)c2ccccc2)O3)cc1`, the cytotoxicity call in the test with HSkMC is “inactive”. Besides, the growth inhibition call in the test with S. aureus RN4220 is “inactive”.

As for `C[C@H]1CN([C@@H](C)CO)S(=O)(=O)c2ccc(C#Cc3ccccc3)cc2O[C@H]1CN(C)S(=O)(=O)c1cn(C)cn1`, the cytotoxicity call in the test with HSkMC is “inactive”. In the test on S. aureus RN4220, the growth inhibition call was “inactive”.

With `C[C@@H]1CCCCO[C@@H](CN(C)S(=O)(=O)c2ccccc2)[C@H](C)CN([C@H](C)CO)C(=O)c2cc(NS(C)(=O)=O)ccc2O1`, the cytotoxicity call with HSkMC was “inactive”. In the test on S. aureus RN4220, the growth inhibition call was “inactive”.

In the case of `Cn1cnc(S(=O)(=O)N[C@@H]2C=C[C@@H](CC(=O)NCC3CC3)O[C@H]2CO)c1`, the cytotoxicity call in the test on HSkMC was “inactive”. Further, in the test on S. aureus RN4220, the growth inhibition call was “inactive”.

Turning to `C[C@@H]1CCCCO[C@@H](CN(C)S(C)(=O)=O)[C@H](C)CN([C@@H](C)CO)C(=O)c2cc(NC(=O)Nc3ccc(C(F)(F)F)cc3)ccc2O1`, the cytotoxicity call in the test with HSkMC was “inactive”. In the test on S. aureus RN4220, the growth inhibition call was “inactive”.

Regarding `C[C@@H]1CCCCO[C@H](CN(C)Cc2ccc(Cl)c(Cl)c2)[C@@H](C)CN([C@H](C)CO)C(=O)c2cc(NS(C)(=O)=O)ccc2O1`, the cytotoxicity call in the test on HSkMC (human skeletal muscle cells) was “inactive”. Further, the growth inhibition call in the test with S. aureus RN4220 is “inactive”.

In the case of `C[C@@H]1CN([C@H](C)CO)C(=O)Cc2cc(NC(=O)CCC(F)(F)F)ccc2O[C@H]1CN(C)Cc1ccc(Cl)c(Cl)c1`, the cytotoxicity call in the test with HSkMC is “inactive”. For the same compound, in the test on S. aureus RN4220, the growth inhibition call is “inactive”.

Regarding `Cn1cnc(S(=O)(=O)N2CC[C@@H](O)[C@@H]2Cc2cnn(C)c2)c1`, in the test with HSkMC, the cytotoxicity call is “inactive”. Also, in the test on S. aureus RN4220, the growth inhibition call is “inactive”.

In the case of `C[C@H]1CN([C@@H](C)CO)C(=O)c2cc(NC(=O)Nc3ccc(F)cc3)ccc2O[C@H]1CN(C)Cc1ccc(Cl)c(Cl)c1`, the cytotoxicity call in the test with HSkMC is “inactive”. In the test with S. aureus RN4220, the growth inhibition call is “inactive”.
